# Source: the supplement of paper PMC8728848
# Some of the results follow.
# B1: Dectin-1 CTLD (Mus musculus), Q6QLQ4 (protein)
# chain: MKYHSHIENLDEDGYTQLDFSTQDIHKRPRGSEKGSRAPSSPWRPIAVGLGILCFVVVVVAAVLGALAFWRHNSGRNPEEKDNFLSRNKENHKPTESSLDEKVAPSKASQTTGGFSQSCLPNWIMHGKSCYLFSFSGNSWYGSKRHCSQLGAHLLKIDNSKEFEFIESQTSSHRINAFWIGLSRNQSEGPWFWEDGSAFFPNSFQVRNTVPQESLLHNCVWIHGSEVYNQICNTSSYSICEKEL
# Tests used:
# Experiment in all cases: glycan array binding signal (z-score within array); higher = stronger binding
# Settings in all cases: glycan notation: IUPAC condensed, linker removed
# [1] = molecular target: Fuc(a1-3)[Gal(b1-4)]GlcNAc(b1-4)Gal(b1-4)[Fuc(a1-3)]GlcNAc(b1-4)Gal(b1-4)[Fuc(a1-3)]GlcNAc
# Procedure, shortened: (§1)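 From the Consortium for Functional Glycomics database, 3228 arrays were curated, keeping only those whose protein sequence was available. Binding is given as a within-array Z-score averaged across arrays sharing a protein sequence and across linkers. Negative Z-scores can be read as non-binding.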
# [2] = molecular target: Fuc(a1-3)[Gal3S(b1-4)]GlcNAc
# Procedure, shortened: as §1
# [3] = molecular target: Fuc(a1-3)[GalNAc(b1-4)]Gal(b1-4)GlcNAc
# Procedure, shortened: as §1
# [4] = molecular target: Fuc(a1-4)GlcNAc
# Procedure, shortened: as §1
# [5] = molecular target: Fuc(b1-3)GlcNAc
# Procedure, shortened: as §1
# [6] = molecular target: Gal(a1-2)Gal
# Procedure, shortened: as §1
# [7] = molecular target: Gal(a1-3)Gal
# Procedure, shortened: as §1
# [8] = molecular target: Gal(a1-3)Gal(b1-3)Glc
# Procedure, shortened: as §1
# [9] = molecular target: Gal(a1-3)Gal(b1-3)GlcNAc
# Procedure, shortened: as §1
# [10] = molecular target: Gal(a1-3)Gal(b1-4)GlcNAc
# Procedure, shortened: as §1
# [11] = molecular target: Gal(a1-3)Gal(b1-4)[Fuc(a1-3)]GalNAc
# Procedure, shortened: as §1
# [12] = molecular target: Gal(a1-3)GlcNAc
# Procedure, shortened: as §1
# [13] = molecular target: Gal(a1-3)[Gal(a1-4)]Gal(b1-4)GlcNAc
# Procedure, shortened: as §1
# [14] = molecular target: Gal(a1-4)Gal(b1-4)Gal
# Procedure, shortened: as §1
# [15] = molecular target: Gal(a1-4)Gal(b1-4)GalNAc
# Procedure, shortened: as §1
# [16] = molecular target: Gal(a1-4)GlcNAc
# Procedure, shortened: as §1
# [17] = molecular target: Gal(a1-6)Glc
# Procedure, shortened: as §1
# [18] = molecular target: Gal(b1-2)Gal
# Procedure, shortened: as §1
# [19] = molecular target: Gal(b1-3)Gal
# Procedure, shortened: as §1
# [20] = molecular target: Gal(b1-3)GalNAc
# Procedure, shortened: as §1
# [21] = molecular target: Gal(b1-3)GalNAc(b1-3)Gal(a1-4)Gal(b1-4)Glc
# Procedure, shortened: as §1
# [22] = molecular target: Gal(b1-3)GalNAc(b1-3)Gal(b1-4)Glc
# Procedure, shortened: as §1
# [23] = molecular target: Gal(b1-3)GalNAc(b1-3)Gal(b1-4)GlcNAc
# Procedure, shortened: as §1
# [24] = molecular target: Gal(b1-3)GalNAc(b1-4)Gal(b1-4)Glc
# Procedure, shortened: as §1
# [25] = molecular target: Gal(b1-3)GalNAc(b1-4)[Neu5Ac(a2-3)]Gal(b1-4)Glc
# Procedure, shortened: as §1
# [26] = molecular target: Gal(b1-3)[Fuc(a1-4)]GlcNAc
# Procedure, shortened: as §1
# [27] = molecular target: Gal(b1-3)[Fuc(a1-4)]GlcNAc(b1-3)Gal(b1-4)GlcNAc
# Procedure, shortened: as §1
# [28] = molecular target: Gal(b1-3)[Fuc(a1-4)]GlcNAc(b1-3)Gal(b1-4)[Fuc(a1-3)]GlcNAc
# Procedure, shortened: as §1
# [29] = molecular target: Gal(b1-3)[GlcNAc(b1-6)]GalNAc
# Procedure, shortened: as §1
# [30] = molecular target: Gal(b1-3)[GlcNAc(b1-6)]GlcNAc
# Procedure, shortened: as §1
# [31] = molecular target: Gal(b1-3)[Neu5Ac(a2-6)]GalNAc
# Procedure, shortened: as §1
# [32] = molecular target: Gal(b1-3)[Neu5Ac(a2-6)]GlcNAc
# Procedure, shortened: as §1
# [33] = molecular target: Gal(b1-3)[Neu5Ac(a2-6)]GlcNAc(a1-4)Gal(b1-4)Glc
# Procedure, shortened: as §1
# [34] = molecular target: Gal(b1-3)[Neu5Ac(b2-6)]GlcNAc
# Procedure, shortened: as §1
# [35] = molecular target: Gal(b1-4)GalNAc(a1-3)[Fuc(a1-2)]Gal(b1-4)GlcNAc
# Procedure, shortened: as §1
# [36] = molecular target: Gal(b1-4)GalNAc(b1-3)[Fuc(a1-2)]Gal(b1-4)GlcNAc
# Procedure, shortened: as §1
# [37] = molecular target: Gal(b1-4)Glc
# Procedure, shortened: as §1
# [38] = molecular target: Gal(b1-4)Glc6S
# Procedure, shortened: as §1
# [39] = molecular target: Gal(b1-4)GlcNAc
# Procedure, shortened: as §1
# [40] = molecular target: Gal(b1-4)GlcNAc(b1-2)Man(a1-3)[Gal(b1-4)GlcNAc(b1-2)Man(a1-6)]Man(b1-4)GlcNAc(b1-4)GlcNAc
# Procedure, shortened: as §1
# [41] = molecular target: Gal(b1-4)GlcNAc(b1-3)Gal(b1-4)Glc
# Procedure, shortened: as §1
# [42] = molecular target: Gal(b1-4)GlcNAc(b1-3)Gal(b1-4)GlcNAc
# Procedure, shortened: as §1
# [43] = molecular target: Gal(b1-4)GlcNAc(b1-3)Gal(b1-4)GlcNAc(b1-3)Gal(b1-4)GlcNAc
# Procedure, shortened: as §1
# [44] = molecular target: Gal(b1-4)GlcNAc(b1-3)Gal(b1-4)[Fuc(a1-3)]GlcNAc(b1-3)Gal(b1-4)[Fuc(a1-3)]GlcNAc
# Procedure, shortened: as §1
# [45] = molecular target: Gal(b1-4)GlcNAc(b1-3)GalNAc
# Procedure, shortened: as §1
# [46] = molecular target: Gal(b1-4)GlcNAc(b1-3)[Gal(b1-4)GlcNAc(b1-6)]GalNAc
# Procedure, shortened: as §1
# [47] = molecular target: Gal(b1-4)GlcNAc(b1-6)GalNAc
# Procedure, shortened: as §1
# [48] = molecular target: Gal(b1-4)GlcNAc(b1-6)[Gal(b1-3)]GalNAc
# Procedure, shortened: as §1
# [49] = molecular target: Gal(b1-4)GlcNAc(b1-6)[Gal(b1-3)]GlcNAc
# Procedure, shortened: as §1
# [50] = molecular target: Gal3S(b1-3)GalNAc
# Procedure, shortened: as §1
# [51] = molecular target: Gal3S(b1-3)GlcNAc
# Procedure, shortened: as §1
# [52] = molecular target: Gal3S(b1-3)[Fuc(a1-4)]GlcNAc
# Procedure, shortened: as §1
# [53] = molecular target: Gal3S(b1-4)Glc
# Procedure, shortened: as §1
# [54] = molecular target: Gal3S(b1-4)Glc6S
# Procedure, shortened: as §1
# [55] = molecular target: Gal3S(b1-4)GlcNAc
# Procedure, shortened: as §1
# [56] = molecular target: Gal3S(b1-4)GlcNAc6S
# Procedure, shortened: as §1
# [57] = molecular target: Gal3S6S(b1-4)GlcNAc
# Procedure, shortened: as §1
# [58] = molecular target: Gal3S6S(b1-4)GlcNAc6S
# Procedure, shortened: as §1
# [59] = molecular target: Gal4S(b1-4)GlcNAc
# Procedure, shortened: as §1
# [60] = molecular target: Gal4S6S(b1-4)GlcNAc
# Procedure, shortened: as §1
# [61] = molecular target: Gal6S(b1-4)Glc
# Procedure, shortened: as §1
# [62] = molecular target: Gal6S(b1-4)Glc6S
# Procedure, shortened: as §1
# [63] = molecular target: Gal6S(b1-4)GlcNAc
# Procedure, shortened: as §1
# [64] = molecular target: GalNAc(a1-3)Gal
# Procedure, shortened: as §1
# [65] = molecular target: GalNAc(a1-3)GalNAc
# Procedure, shortened: as §1
# [66] = molecular target: GalNAc(b1-3)Gal(a1-4)Gal(b1-4)GlcNAc
# Procedure, shortened: as §1
# [67] = molecular target: GalNAc(b1-4)GlcNAc
# Procedure, shortened: as §1
# [68] = molecular target: Glc(a1-4)Glc
# Procedure, shortened: as §1
# [69] = molecular target: Glc(a1-6)Glc(a1-6)Glc
# Procedure, shortened: as §1
# [70] = molecular target: Glc(b1-4)Glc
# Procedure, shortened: as §1
# [71] = molecular target: Glc(b1-6)Glc
# Procedure, shortened: as §1
# [72] = molecular target: GlcA(b1-3)Gal
# Procedure, shortened: as §1
# [73] = molecular target: GlcA(b1-6)Gal
# Procedure, shortened: as §1
# [74] = molecular target: GlcNAc(a1-3)Gal(b1-4)GlcNAc
# Procedure, shortened: as §1
# [75] = molecular target: GlcNAc(a1-6)Gal(b1-4)GlcNAc
# Procedure, shortened: as §1
binder,measurement,setting,value
B1,glycan array binding signal (z-score),[1],-0.306
same,glycan array binding signal (z-score),[2],0.129
same,glycan array binding signal (z-score),[3],-0.344
same,glycan array binding signal (z-score),[4],-0.141
same,glycan array binding signal (z-score),[5],0.143
same,glycan array binding signal (z-score),[6],1.6
same,glycan array binding signal (z-score),[7],-0.137
same,glycan array binding signal (z-score),[8],-0.468
same,glycan array binding signal (z-score),[9],-0.273
same,glycan array binding signal (z-score),[10],-0.388
same,glycan array binding signal (z-score),[11],-0.466
same,glycan array binding signal (z-score),[12],-0.341
same,glycan array binding signal (z-score),[13],0.011
same,glycan array binding signal (z-score),[14],-0.184
same,glycan array binding signal (z-score),[15],-0.266
same,glycan array binding signal (z-score),[16],-0.51
same,glycan array binding signal (z-score),[17],-0.365
same,glycan array binding signal (z-score),[18],-0.384
same,glycan array binding signal (z-score),[19],-0.471
same,glycan array binding signal (z-score),[20],0.816
same,glycan array binding signal (z-score),[21],-0.227
same,glycan array binding signal (z-score),[22],-0.21
same,glycan array binding signal (z-score),[23],0.343
same,glycan array binding signal (z-score),[24],0.033
same,glycan array binding signal (z-score),[25],-0.16
same,glycan array binding signal (z-score),[26],-0.213
same,glycan array binding signal (z-score),[27],-0.361
same,glycan array binding signal (z-score),[28],-0.154
same,glycan array binding signal (z-score),[29],-0.202
same,glycan array binding signal (z-score),[30],-0.058
same,glycan array binding signal (z-score),[31],-0.139
same,glycan array binding signal (z-score),[32],-0.392
same,glycan array binding signal (z-score),[33],0.033
same,glycan array binding signal (z-score),[34],-0.205
same,glycan array binding signal (z-score),[35],-0.12
same,glycan array binding signal (z-score),[36],-0.348
same,glycan array binding signal (z-score),[37],1.14
same,glycan array binding signal (z-score),[38],-0.129
same,glycan array binding signal (z-score),[39],-0.159
same,glycan array binding signal (z-score),[40],-0.154
same,glycan array binding signal (z-score),[41],0.5
same,glycan array binding signal (z-score),[42],-0.38
same,glycan array binding signal (z-score),[43],-0.185
same,glycan array binding signal (z-score),[44],-0.445
same,glycan array binding signal (z-score),[45],-0.068
same,glycan array binding signal (z-score),[46],-0.217
same,glycan array binding signal (z-score),[47],-0.151
same,glycan array binding signal (z-score),[48],-0.11
same,glycan array binding signal (z-score),[49],-0.276
same,glycan array binding signal (z-score),[50],-0.372
same,glycan array binding signal (z-score),[51],-0.491
same,glycan array binding signal (z-score),[52],-0.474
same,glycan array binding signal (z-score),[53],-0.39
same,glycan array binding signal (z-score),[54],0.128
same,glycan array binding signal (z-score),[55],0.333
same,glycan array binding signal (z-score),[56],-0.385
same,glycan array binding signal (z-score),[57],-0.48
same,glycan array binding signal (z-score),[58],-0.499
same,glycan array binding signal (z-score),[59],-0.352
same,glycan array binding signal (z-score),[60],-0.021
same,glycan array binding signal (z-score),[61],-0.235
same,glycan array binding signal (z-score),[62],-0.377
same,glycan array binding signal (z-score),[63],-0.262
same,glycan array binding signal (z-score),[64],-0.457
same,glycan array binding signal (z-score),[65],-0.185
same,glycan array binding signal (z-score),[66],-0.464
same,glycan array binding signal (z-score),[67],-0.197
same,glycan array binding signal (z-score),[68],0.964
same,glycan array binding signal (z-score),[69],0.001
same,glycan array binding signal (z-score),[70],-0.278
same,glycan array binding signal (z-score),[71],0.549
same,glycan array binding signal (z-score),[72],4.11
same,glycan array binding signal (z-score),[73],-0.263
same,glycan array binding signal (z-score),[74],-0.269
same,glycan array binding signal (z-score),[75],-0.24
